Test results taken from PMC4336329 (PLoS ONE, 2015).
Screen size: about 310,000 compounds; about 2,200 (0.71%) showed an effect of 50% or more. Effects have a minus sign here. This is one part of the list.

Target: human ether-à-go-go-related gene (hERG) potassium channel (human, UniProt Q12809)
Assay: primary screen, population patch clamp on CHO cells stably expressing hERG

human ether-à-go-go-related gene (hERG) potassium channel, sequence (Q12809 whole entry, looked up): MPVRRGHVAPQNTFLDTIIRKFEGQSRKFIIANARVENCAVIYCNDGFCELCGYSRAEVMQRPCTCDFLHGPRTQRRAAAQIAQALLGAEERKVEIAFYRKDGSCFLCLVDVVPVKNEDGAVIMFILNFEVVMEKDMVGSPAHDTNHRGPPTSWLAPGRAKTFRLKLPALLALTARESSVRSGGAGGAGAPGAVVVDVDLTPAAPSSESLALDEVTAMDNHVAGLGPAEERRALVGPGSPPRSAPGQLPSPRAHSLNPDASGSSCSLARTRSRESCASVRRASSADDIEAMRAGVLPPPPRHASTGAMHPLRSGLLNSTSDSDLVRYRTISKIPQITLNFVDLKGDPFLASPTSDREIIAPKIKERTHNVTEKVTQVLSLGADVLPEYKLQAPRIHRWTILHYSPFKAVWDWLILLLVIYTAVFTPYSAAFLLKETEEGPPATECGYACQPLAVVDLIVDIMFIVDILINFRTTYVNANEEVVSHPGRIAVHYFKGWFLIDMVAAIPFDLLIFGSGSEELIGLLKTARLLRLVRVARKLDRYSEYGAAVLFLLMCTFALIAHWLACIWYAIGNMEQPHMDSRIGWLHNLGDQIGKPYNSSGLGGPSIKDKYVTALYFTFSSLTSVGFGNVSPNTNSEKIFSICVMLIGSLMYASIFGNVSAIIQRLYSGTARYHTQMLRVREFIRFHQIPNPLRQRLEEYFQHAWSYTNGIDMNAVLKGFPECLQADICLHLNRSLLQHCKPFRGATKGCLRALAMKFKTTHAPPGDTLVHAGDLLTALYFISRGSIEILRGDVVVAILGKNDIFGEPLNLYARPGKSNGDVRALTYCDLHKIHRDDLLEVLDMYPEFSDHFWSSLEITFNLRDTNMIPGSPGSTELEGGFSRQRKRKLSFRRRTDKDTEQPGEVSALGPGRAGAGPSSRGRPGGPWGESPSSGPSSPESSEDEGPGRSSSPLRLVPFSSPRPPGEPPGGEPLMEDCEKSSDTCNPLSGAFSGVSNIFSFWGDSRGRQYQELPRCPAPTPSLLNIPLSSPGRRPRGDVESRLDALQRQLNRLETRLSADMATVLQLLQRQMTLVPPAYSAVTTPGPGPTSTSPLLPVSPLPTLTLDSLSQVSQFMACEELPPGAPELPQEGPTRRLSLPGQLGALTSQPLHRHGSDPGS

Row | SMILES | hERG current change (%, negative = inhibition) at 1uM [%]
1 | COCCn1c(=NC(=O)CCS(=O)(=O)c2ccccc2)sc2cc(F)ccc21 | 3.85
2 | O=C(c1ccccc1N(Cc1ccccc1)S(=O)(=O)c1ccccc1)N1CCOCC1 | 1.25
3 | CC(/C=N/Nc1nc(N2CCCCC2)nc(N2CCCCC2)n1)=C\c1ccccc1 | 12.2
4 | CC(C)CNC(=O)c1noc2c1CCCC2 | 11.1
5 | Cc1ccc(OCC(=O)NNC(=O)C2CCN(c3ncccn3)CC2)cc1 | 3.85
6 | CCOC(=O)c1c(S(=O)(=O)NCC(C)c2ccccc2)c(C)n(C)c1C (stereo not shown) | 4.64
7 | O=C(c1ccc(CN2CCc3ccccc3C2)cc1)N1CCCCC1 | 8.8
8 | CCN1C(=O)CC(c2ccco2)Sc2ccccc21 (stereo not shown) | -0.834
9 | CC(C)c1nnc(NC(=O)CC(=O)Nc2ccccc2C(=O)O)s1 | 8.36
10 | O=C(/C=C/c1ccccc1[N+](=O)[O-])OCC(=O)c1ccccc1 | 3.23
11 | CCOC(=O)C(CCC(=O)O)(CCC(C)C)c1csc(N)n1 (stereo not shown) | -6.1
12 | Oc1c(C(c2ccccn2)N2CCC(Cc3ccccc3)CC2)cc(Cl)c2cccnc12 (stereo not shown) | 8.8
13 | CCOCCc1nnc(NC(=O)C(CC)c2ccccc2)s1 (stereo not shown) | 9.75
14 | COc1ccc(C2CCCN2C(=S)Nc2cccc(C)c2)cc1OC (stereo not shown) | 5.51
15 | CC(C)[C@H](N)C(=O)NC[C@H](CC(=O)NCC1CCC(C(=O)O)CC1)c1ccc(Cl)cc1.Cl (stereo partly shown) | 16.3
16 | COc1ccc(N2C(=O)NC(=O)C(CCc3ccncc3)(CCc3ccncc3)C2=O)cc1 | 0.0961
17 | CCOC(=O)N1CCN(C(=O)c2ccc3c(=O)n(CCc4ccccc4)c(=S)[nH]c3c2)CC1 | 5.65
18 | COc1ccc(CN2CCNC(=O)C2CC(=O)N(C)Cc2cc(C)no2)cc1OC (stereo not shown) | 6.52
19 | CCCCn1c(N)c(N(CC(C)C)C(=O)CCCn2c(=O)oc3ccccc32)c(=O)[nH]c1=O | -3.99
20 | O=C(O)CN1C(=O)/C(=C\c2cccc(OC(=O)c3ccco3)c2)SC1=S | 5.92
21 | Cc1ccsc1C(=O)NCCC(c1ccccc1)c1ccccc1 | 14.2
22 | COC(=O)c1ccc2c(=O)n(CC3CCCO3)c(SCC(=O)NCCc3ccc(S(N)(=O)=O)cc3)nc2c1 (stereo not shown) | 8.72

Row | SMILES | hERG current change (%, negative = inhibition) at 1uM [%]
23 | O=C(Nc1nc2cc3c(cc2s1)OCCO3)c1cccc(N2C(=O)CCC2=O)c1 | -8.15
24 | COc1cc(/C=N/NC(=O)c2ccncc2)ccc1OC(=O)c1ccco1 | 10.5
25 | CCCCSc1nc2c(c(=O)[nH]c(=O)n2C)n1CCc1ccccc1 | 10
26 | COc1cccc(CNC(=O)C2(C)Oc3ccccc3NC2=O)c1 (stereo not shown) | 13.7
27 | CSc1nc(N2CCOCC2)c2ccccc2n1 | 3.95
28 | CC(=O)Nc1ccc(N2C(=O)CC(N3CC(C)OC(C)C3)C2=O)cc1 (stereo not shown) | 10.7
29 | Cc1cc(OCC(=O)NCc2ccccn2)cc(C)c1Br | 7.49
30 | COc1cc(/C=N/NC(=O)c2cccnc2)ccc1OC(=O)c1cc(OC)c(OC)c(OC)c1 | 19
31 | O=C(CSc1nnc(-c2ccco2)o1)N1CCOCC1 | -1.5
32 | CN1CCN(C(=O)C2CCCN(c3ncnc4c3nc3n4CCCCC3)C2)CC1 (stereo not shown) | 14.5
33 | CCCCn1c(=N)n(CC(O)COc2cccc(C)c2)c2ccccc21.Cl (stereo not shown) | -59.8
34 | CCOc1ccc(N(C(=O)c2snc(C(N)=O)c2N)C(C(=O)NC2CCCC2)c2ccncc2)cc1 (stereo not shown) | 14.9
35 | COc1ccc(CN2CCN(C(=O)Cc3ccccc3)CC2)cc1Br.O=C(O)C(=O)O | 16.8
36 | Nc1ccc(Oc2ccc([N+](=O)[O-])cc2[N+](=O)[O-])cc1 | -5.14
37 | Cc1ccc(NCc2ccncc2)c(Br)c1.O=C(O)C(=O)O | 0.799
38 | N#Cc1cc(-c2ccccc2)nnc1Oc1ccccc1Cl | 12.9
39 | CC(=O)Nc1ccc(NC(=O)CSc2nnc(C)n2-c2ccccc2)cc1 | 18.9
40 | N#Cc1cccc(NC(=O)c2ccccc2C(=O)O)c1 | 2.51
41 | Cc1ccc(NC(=O)c2nc[nH]c2C(=O)N2CCOCC2)c(C(=O)c2ccccc2)c1 | 7.55
42 | CC1=CN2C(=NC(=O)CC2(C)C(=O)N(CC(=O)NC2CCCC2)Cc2ccc(Cl)cc2)C=C1 (stereo not shown) | 1.29
43 | Cl.OC(CN1CCOCC1)Cn1c2c(c3ccccc31)CCCC2 (stereo not shown) | 6.75
